In a collection of fitness landscapes (doi:10.1126/science.1257360) one finds enrichment ratio data, which are given here for 195 variants.

Some of the results follow.

B1: PhoQ; a variant is named by its letters at X, in order, P23837 (parent)
chain: MKKLLRLFFPLSLRVRFLLATAAVVLVLSLAYGMVALIGYSVSFDKTTFRLLRGESNLFYTLAKWENNKLHVELPENIDKQSPTMTLIYDENGQLLWAQRDVPWLMKMIQPDWLKSNGFHEIEADVNDTSLLLSGDHSIQQQLQEVREDDDDAEMTHSVAVNVYPATSRMPKLTIVVVDTIPVELKSSYMVWSWFIYVLSANLLLVIPLLWVAAWWSLRPIEALAKEVRELEEHNRELLNPATTRELTSLVRNLNRLLKSERERYDKYRTTLTDLTHSLKTPLXXLQXXLRSLRSEKMSVSDAEPVMLEQISRISQQIGYYLHRASMRGGTLLSRELHPVAPLLDNLTSALNKVYQRKGVNISLDISPEISFVGEQNDFVEVMGNVLDNACKYCLEFVEISARQTDEHLYIVVEDDGPGIPLSKREVIFDRGQRVDTLRPGQGVGLAVAREITEQYEGKIVAGESMLGGARMEVIFGRQHSAPKDE

The variants in this experiment derive from B1. The experiment is described as follows: enrichment ratio after two sorts for PhoP signalling (ratio (wild type AVST 3.29)); higher = more functional. Conditions: with PhoP (E. coli).
Take DSYE: the enrichment ratio is not above 0.25.
For the variant HDNK, the enrichment ratio was not above 0.25.
The figure for WNTH is not above 0.25; for KMFK it is not above 0.25.
As for VTQD, the enrichment ratio was not above 0.25.
The figure for YKSS is not above 0.25.
With MRTR, the enrichment ratio was not above 0.25.
Turning to RDAY, the enrichment ratio is not above 0.25.
On to ELFI, for which the enrichment ratio is not above 0.25.
In the case of RKDC, the enrichment ratio is not above 0.25.
Regarding ISKH, the enrichment ratio was not above 0.25.
The figure for AARL is not above 0.25; for PLLS it is not above 0.25; for HTYQ it is not above 0.25.
The figure for TQTV is 7.38.
With RHEE, the enrichment ratio is not above 0.25.
Take WPMR: the enrichment ratio was not above 0.25.
Regarding DLGR, the enrichment ratio was not above 0.25.
Regarding DYEC, the enrichment ratio is not above 0.25.
Turning to HDIK, the enrichment ratio was not above 0.25.
For the variant QNRG, the enrichment ratio is not above 0.25.
The figure for HHFF is not above 0.25; for PLGS it is not above 0.25.
The figure for YLLN is not above 0.25; for KKEH it is not above 0.25; for NNVR it is not above 0.25.
LCWE: the enrichment ratio is not above 0.25.
As for DYFM, the enrichment ratio was not above 0.25.
In the case of DFQD, the enrichment ratio is not above 0.25.
Take GECY: the enrichment ratio was not above 0.25.
The same measure for WGAF: not above 0.25; for VGAL: 0.829.
With GHHW, the enrichment ratio was not above 0.25.
The figure for WVMS is not above 0.25; for EYYG it is not above 0.25.
As to PEWK, the enrichment ratio was not above 0.25.
Consider PLVM, for which the enrichment ratio was not above 0.25.
With KAYK, the enrichment ratio was not above 0.25.
APKK: the enrichment ratio was not above 0.25.
DGSH: the enrichment ratio is not above 0.25.
For the variant FELF, the enrichment ratio is not above 0.25.
On to QTKF, for which the enrichment ratio was not above 0.25.
On to NFVW, for which the enrichment ratio was not above 0.25.
Consider FHNY, for which the enrichment ratio is not above 0.25.
The same measure for LGLS: not above 0.25.
As to EKDK, the enrichment ratio was not above 0.25.
Turning to FTFA, the enrichment ratio is not above 0.25.
As for TRSS, the enrichment ratio was found to be 0.318.
TALS: the enrichment ratio is 10.9.
As for TYTV, the enrichment ratio amounted to 0.992.
The figure for SHRT is not above 0.25; for DYPR it is not above 0.25.
The figure for DLSP is not above 0.25; for RVRF it is not above 0.25.
GKVK: the enrichment ratio is not above 0.25.
Turning to FMCV, the enrichment ratio is not above 0.25.
With HFMN, the enrichment ratio is not above 0.25.
The same measure for LMAK: not above 0.25; for IVCV: not above 0.25.
For the variant AIFH, the enrichment ratio is not above 0.25.
Consider YPCK, for which the enrichment ratio was not above 0.25.
In the case of VCEK, the enrichment ratio is not above 0.25.
As for VDNV, the enrichment ratio was not above 0.25.
In the case of CQFM, the enrichment ratio is not above 0.25.
The figure for AQEM is not above 0.25.
In the case of WYEY, the enrichment ratio was not above 0.25.
Regarding NYPF, the enrichment ratio is not above 0.25.
As to KTSG, the enrichment ratio was not above 0.25.
For NMTW, the enrichment ratio was not above 0.25.
Regarding NSYI, the enrichment ratio was not above 0.25.
As for IHTI, the enrichment ratio was not above 0.25.
The same measure for DAIR: not above 0.25.
Turning to YRHW, the enrichment ratio was not above 0.25.
As to GAPL, the enrichment ratio was not above 0.25.
With WRQK, the enrichment ratio was not above 0.25.
The same measure for LNLM: not above 0.25; for QNYP: not above 0.25; for HNKM: not above 0.25.
For LVSF, the enrichment ratio was not above 0.25.
For the variant VSQT, the enrichment ratio is not above 0.25.
Consider WRHQ, for which the enrichment ratio was not above 0.25.
On to NHAN, for which the enrichment ratio was not above 0.25.
Consider ENAP, for which the enrichment ratio is not above 0.25.
Turning to PIGH, the enrichment ratio was not above 0.25.
In the case of YTHF, the enrichment ratio was not above 0.25.
On to VHFT, for which the enrichment ratio is not above 0.25.
Turning to TNLR, the enrichment ratio was 0.738.
The figure for FSKF is not above 0.25.
In the case of ELKL, the enrichment ratio was not above 0.25.
On to STRD, for which the enrichment ratio was not above 0.25.
Turning to PFRD, the enrichment ratio is not above 0.25.
Turning to IVNN, the enrichment ratio is not above 0.25.
As for RVHQ, the enrichment ratio is not above 0.25.
Turning to WLNQ, the enrichment ratio was not above 0.25.
For TCHL, the enrichment ratio was found to be 8.17.
Turning to WDVD, the enrichment ratio was not above 0.25.
In the case of FFSS, the enrichment ratio is not above 0.25.
Take NGDD: the enrichment ratio was not above 0.25.
As for IHYD, the enrichment ratio was not above 0.25.
The figure for AFGD is not above 0.25.
Take DNCY: the enrichment ratio was not above 0.25.
As for YDLG, the enrichment ratio is not above 0.25.
As to LAYW, the enrichment ratio was not above 0.25.
The figure for MQFS is 3.3; for VQWR it is not above 0.25; for PFMI it is not above 0.25.
In the case of WGMW, the enrichment ratio was not above 0.25.
Take TQTL: the enrichment ratio amounted to 9.51.
Take VHPQ: the enrichment ratio is not above 0.25.
Take RFGW: the enrichment ratio is not above 0.25.
The same measure for WDGC: not above 0.25; for GITL: 7.35; for INYV: not above 0.25.
The same measure for IMRH: not above 0.25; for AGRF: not above 0.25; for AQAY: 15.2.
On to ASMC, for which the enrichment ratio amounted to 12.1.
As for MQLS, the enrichment ratio worked out at 6.18.
As for WKSV, the enrichment ratio is not above 0.25.
As for QYTP, the enrichment ratio was not above 0.25.
Turning to NTWT, the enrichment ratio is not above 0.25.
In the case of LQWV, the enrichment ratio was not above 0.25.
The figure for FQRT is not above 0.25; for KASI it is not above 0.25; for SAGD it is not above 0.25.
Regarding WNAR, the enrichment ratio is not above 0.25.
Turning to MNVY, the enrichment ratio was not above 0.25.
For the variant NFRI, the enrichment ratio is not above 0.25.
As for IYKC, the enrichment ratio was not above 0.25.
The same measure for AHRK: not above 0.25; for PMQK: not above 0.25.
For the variant ITTF, the enrichment ratio was not above 0.25.
Turning to MINI, the enrichment ratio was not above 0.25.
In the case of ACMP, the enrichment ratio was determined as 1.45.
Regarding NHST, the enrichment ratio was not above 0.25.
Turning to AQYV, the enrichment ratio is not above 0.25.
The figure for QKHP is not above 0.25; for YLAY it is 0.285.
PLLC: the enrichment ratio is not above 0.25.
As for CRSL, the enrichment ratio is not above 0.25.
Regarding DLGM, the enrichment ratio was found to be 1.55.
On to KNFC, for which the enrichment ratio is not above 0.25.
Turning to LTTQ, the enrichment ratio was not above 0.25.
Turning to AEDS, the enrichment ratio is not above 0.25.
On to HMPM, for which the enrichment ratio is not above 0.25.
As for GEVY, the enrichment ratio is 15.9.
In the case of EFCR, the enrichment ratio is not above 0.25.
For the variant ESCK, the enrichment ratio was not above 0.25.
On to FWAE, for which the enrichment ratio was not above 0.25.
Take VPEG: the enrichment ratio was not above 0.25.
On to KPNP, for which the enrichment ratio is not above 0.25.
As to IGNY, the enrichment ratio was not above 0.25.
Consider LMRN, for which the enrichment ratio is not above 0.25.
For PGLK, the enrichment ratio is not above 0.25.
The same measure for VRHS: not above 0.25; for APMP: not above 0.25; for DVGF: not above 0.25.
Take TTAH: the enrichment ratio is 8.28.
For the variant LKKD, the enrichment ratio is not above 0.25.
For the variant MDTA, the enrichment ratio was not above 0.25.
With KAAL, the enrichment ratio was 1.81.
With KHDA, the enrichment ratio was not above 0.25.
For RTHV, the enrichment ratio is not above 0.25.
In the case of IIVY, the enrichment ratio was not above 0.25.
For DNGL, the enrichment ratio was not above 0.25.
The same measure for NPVW: not above 0.25; for AHMH: not above 0.25; for MHRS: not above 0.25.
CQTP: the enrichment ratio was not above 0.25.
For LWNS, the enrichment ratio was not above 0.25.
On to IYCN, for which the enrichment ratio was not above 0.25.
Consider QFFH, for which the enrichment ratio is not above 0.25.
As to NKCY, the enrichment ratio was not above 0.25.
The figure for IQML is not above 0.25.
The same measure for EGIY: not above 0.25.
The figure for YYHD is not above 0.25; for LHWC it is not above 0.25; for VAFQ it is 0.889.
As for VFQK, the enrichment ratio was not above 0.25.
In the case of EKVT, the enrichment ratio is not above 0.25.
In the case of HWEE, the enrichment ratio is not above 0.25.
With YDRI, the enrichment ratio was not above 0.25.
On to WSFL, for which the enrichment ratio was not above 0.25.
Take EAWR: the enrichment ratio is not above 0.25.
In the case of TFFF, the enrichment ratio is not above 0.25.
The same measure for GHWD: not above 0.25; for WNEG: not above 0.25.
In the case of DVKG, the enrichment ratio was not above 0.25.
Turning to GVST, the enrichment ratio is not above 0.25.
The same measure for RKMT: not above 0.25; for YLVT: not above 0.25; for NINC: not above 0.25.
The same measure for NFWV: not above 0.25; for WVQR: not above 0.25; for AKEF: not above 0.25.
